Among all 150,000 compounds or so, about 540 (0.36%) showed an effect of 50% or more. The list shows a part of the results.

One may read the % Inhibition as the relative decrease from the control value, in per cent.

In this experiment the test system is Plasmodium falciparum. Briefly: Primary screen in NF54 nanoGlo assay, in single point, at 2uM, 72h; a lower Z score goes with more inhibition. The note with it: timepoint 72 hour. It counts as functional, Erythrocyte.
Take `C=C(C)CN(CC)C(=O)CNc1c(C)cccc1C(N)=O`: the “% Inhibition” value was -2% and the Z score is 0.28.
In the case of `CC(O)CN(CC(C)O)CC(O)COc1ccccc1Br` (stereo unspecified), the “% Inhibition” value is recorded as -11% and the Z score amounted to 1.48.
For `CCn1cc(C(=O)N2CCCN(CC(C)C)[C@H](c3nc(C)no3)C2)cn1`, in that order: -11% and 2.02.
For `CCn1cc(S(=O)(=O)N2CCOc3c(F)ccc(F)c32)cn1`, in that order: -3% and 0.64.
Regarding `O=C(C1CCCCC1)N1CCCc2ccccc21`, the “% Inhibition” value is recorded as 5% and the Z score is given as -0.66.
Taken in the same sequence, the figures for `O=C(NCCOCCn1cccn1)Nc1ccccc1` were -14% and 1.61.
As to `O=C(NCc1n[nH]c(=O)[nH]1)[C@@H]1CCCN1C(=O)C1CCCCC1`, the “% Inhibition” value stood at 9% and the Z score is on record as -1.63.
Taken in the same sequence, the figures for `CCOC(=O)c1nn(Cc2ccccc2)c2c1CN(C(=O)c1nonc1C)CC2` were -11% and 1.38.
Taken in the same sequence, the figures for `CC(C)c1nccc(C(=O)NCC[C@H]2CCCN(C)C2)n1` were 10% and -1.96.
Taken in the same sequence, the figures for `Cc1ccc(C(=O)N2CCN(C3CCCCC3)CC2)cc1-n1nnc2cccnc21` were -16% and 3.09.
Turning to `Cn1cc(-c2ccc(CNC(=O)c3nc(-c4cccs4)cs3)cn2)cn1`, the “% Inhibition” value was -15% and the Z score came to 2.18.
`CC[N+]1(Cc2cc(CCC(=O)OC)ccc2OC)CCCCC1`: the “% Inhibition” value is -6% and the Z score is 0.74.
For `Cc1cc(C)c2c(c1)NC(=O)[C@H]2CC(=O)NCCc1cc(=O)[nH]c(C(C)C)n1`, in that order: -9% and 1.01.
Taken in the same sequence, the figures for `C=C1C(C)(C)[C@@H]2CC[C@@]1(C(=O)NCc1cc(C3CC3)on1)C2` were 9% and -1.22.
Taken in the same sequence, the figures for `CCc1nc(C)c(C(=O)NC[C@H]2CCCN(S(C)(=O)=O)C2)s1` were -16% and 2.96.
In the case of `CCN(C[C@H]1CCCCO1)c1nc(CCN)nc2ccccc12`, the “% Inhibition” value is on record as -3% and the Z score is 0.25.
Taken in the same sequence, the figures for `O=C(O)c1nnn(-c2cccc(OC(F)(F)F)c2)c1-c1cccnc1` were -20% and 2.18.
As to `O=C(N[C@H]1CC(=O)N(C2CC2)C1)C1CCC1`, the “% Inhibition” value is given as -9% and the Z score stood at 1.69.
Taken in the same sequence, the figures for `CCOC(=O)c1nc2cc(Cl)c(Cl)cc2nc1N1CCCN(S(=O)(=O)c2ccc(NC(C)=O)cc2)CC1` were -9% and 1.31.
As to `COc1ccc(CCN(C(=O)c2cnc(C)nc2)C2CCCCCC2)cc1OC`, the “% Inhibition” value is given as -2% and the Z score was found to be 0.42.
Taken in the same sequence, the figures for `CC1C(c2ccccc2)CCN1c1cncc(C(N)=O)n1` (stereo unspecified) were 4% and -0.6.
Taken in the same sequence, the figures for `C[C@H](NCC(=O)NCC1CC1)c1ccc(Br)cc1F` were -4% and 0.57.
Take `CCC(=O)NCc1csc(C2CCN(C(=O)c3ccc(C)cc3)CC2)n1`: the “% Inhibition” value is -14% and the Z score worked out at 1.79.
Taken in the same sequence, the figures for `CCc1nc(C2(NCC(=O)N3c4ccccc4C[C@@H]3C)CCCC2)no1` were 3% and -0.51.
For `COC[C@@H]1CN(C(=O)c2cccc(C#N)c2)C[C@H]1c1nc(C2CC2)no1`, in that order: -15% and 2.64.
For `CCO[C@@H](C)c1noc(-c2cc(NC(C)=O)cc(C(F)(F)F)c2)n1`, in that order: -4% and 0.4.
In the case of `CC(=O)OCC(=O)Nc1ccccc1C`, the “% Inhibition” value is -6% and the Z score is reported as 0.59.
Taken in the same sequence, the figures for `Cn1ncc(C(=O)N2CCN(Cc3ccc(-c4cccc(F)c4)s3)CC2)c1N` were -19% and 1.96.
For `Cc1c(C)c(C(=O)NCc2cccc(C(F)(F)F)c2)n(Cc2ccc(F)c(F)c2)c1C`, the “% Inhibition” value is listed as -5% and the Z score was found to be 0.56.
For `C[C@@H]1Oc2cc(S(=O)(=O)N3CCN(C(=O)Cc4cccc(F)c4)CC3)c(Cl)cc2NC1=O`, in that order: -13% and 1.34.
Taken in the same sequence, the figures for `Cc1nsc(N2CCC3CCC(C2)N3C(=O)OC(C)(C)C)n1` (stereo unspecified) were -8% and 0.81.
Taken in the same sequence, the figures for `COc1ccc(OCc2nc(C(=O)N3CCN(c4ccc(C)cc4)CC3)co2)cc1` were -10% and 1.54.
As to `Cn1c(COc2ccc(C3CCCC3)cc2)nnc1[C@H]1C[C@@H](N)C1`, the “% Inhibition” value came to 0% and the Z score is -0.05.
Taken in the same sequence, the figures for `CCn1ccc2ccc(CN3CC[C@@H](O)C[C@H]3C(=O)OC)cc21` were -13% and 1.83.
For `Cc1cc(C)c2nc(N3CCC(C(=O)NC4CCCCCC4)CC3)sc2c1`, in that order: -8% and 1.22.
For `CC(=O)N(CCN1CCOCC1)[C@H]1CCN(C(=O)CC(C)C)C1`, in that order: -9% and 1.14.
As to `Cc1cc(C)nc(NCc2cccnc2N2CCOCC2)n1`, the “% Inhibition” value is 6% and the Z score is given as -0.9.
Regarding `CCn1ncc(-c2ccc3c(c2)OCCO3)c1C(=O)OC`, the “% Inhibition” value is on record as -14% and the Z score came to 1.93.
For `CCC(=O)N(Cc1c(-c2ccccc2)nn(C)c1Oc1ccc(OC)cc1)CC1CC1`, in that order: 3% and -0.28.
Taken in the same sequence, the figures for `CCCn1nccc1NS(=O)(=O)c1cccc2nsnc12` were 6% and -0.66.
As to `Cc1ccc(NCCCNC(=O)[C@@H]2CCCCCN2C)nc1`, the “% Inhibition” value is listed as -4% and the Z score came to 0.68.
Taken in the same sequence, the figures for `Cc1cnc(C(C)N2CCCC(c3ccn[nH]3)C2)o1` (stereo unspecified) were -4% and 0.36.
On to `Cc1ccc(C)c(NC(N)=NCCCn2cc(C)cn2)c1`, for which the “% Inhibition” value stood at 3% and the Z score was -0.41.
Taken in the same sequence, the figures for `Cc1noc([C@H](C)NC(=O)N2CCC(C#N)CC2)n1` were -7% and 0.65.
Taken in the same sequence, the figures for `COc1cccc(-c2nc(Cn3ccn4nc(-c5cc(C)ccc5C)cc4c3=O)no2)c1` were -7% and 0.94.
Taken in the same sequence, the figures for `CCC(CC)CN(CC)C(=O)c1cc(CO)on1` were -8% and 1.06.
On to `CCc1ccc(CNC(C)(C)CO)cc1`, for which the “% Inhibition” value came to 29% and the Z score is given as -3.94.
Consider `O=C(NCCc1nc2ccccc2[nH]1)C(=O)Nc1cc(-c2ccccc2)ns1`, for which the “% Inhibition” value was -23% and the Z score was determined as 2.45.
For `O=C(c1cnc(C2CC2)nc1)N(CCO)CC1CCCCC1`, in that order: -1% and 0.2.
Taken in the same sequence, the figures for `CC(C(=O)N1CCc2ccccc2C1)N(C)CC1CCOC1` (stereo unspecified) were 5% and -0.64.
For `CCOc1ccc(N2C3=[N+](CCCCC3)C[C@]2(O)c2ccc(OC(F)F)cc2)cc1`, in that order: 1% and -0.06.
Regarding `COc1cc(Cl)ccc1C(=O)N1CCCN(c2nnc3ccccn23)CC1`, the “% Inhibition” value was -2% and the Z score was 0.24.
Taken in the same sequence, the figures for `CN(CCN(C(=O)[C@H]1CCc2[nH]nnc2C1)C1CC1)C1CC1` were 11% and -1.39.
For `C[C@@H](CNc1nc(-c2ccccc2)nc2ccccc12)N1CCOCC1`, in that order: -9% and 1.51.
`C[C@@H](Cc1ccsc1)N(C)C(=O)c1cccc(C(=O)O)n1`: the “% Inhibition” value is reported as 5% and the Z score is -0.53.
Taken in the same sequence, the figures for `CC(C)c1noc(C2CCN(C(=O)c3cc(C#N)c[nH]3)CC2)n1` were 11% and -2.14.
Taken in the same sequence, the figures for `CCO[C@H]1COC[C@@H]1NC(=O)c1ccc(Cl)s1` were -2% and 0.29.
As to `COc1ccccc1CC(=O)NC[C@H](C)O`, the “% Inhibition” value was found to be 40% and the Z score is on record as -1.39.
Taken in the same sequence, the figures for `Cc1nc(-c2csc(S(=O)(=O)N3CCC[C@H](C(=O)Nc4ccccc4C)C3)c2)no1` were -17% and 1.96.
Turning to `COc1cc(N2CCC(N3CCC[C@H](C(=O)NCc4ccccn4)C3)CC2)ncn1`, the “% Inhibition” value is reported as -22% and the Z score was determined as 2.02.
For `Cc1ccccc1N1CCN(C(=O)C[C@]2(c3ccccc3F)CC(=O)N(CCN(C)C)C2=O)CC1`, in that order: 8% and -1.08.
Regarding `COc1ccc(OC)c(CN(c2cnn(C)c2)S(=O)(=O)N2CCC[C@H](C)C2)c1`, the “% Inhibition” value was 18% and the Z score is -2.06.
For `COc1cccc(C(=O)NCC(=O)Nc2cccc(C(=O)NC3CC3)c2)c1`, in that order: -9% and 1.32.
Taken in the same sequence, the figures for `O=C(NC1CCCC(O)C1)c1cccnc1OCc1ccccc1F` (stereo unspecified) were -5% and 0.58.
Taken in the same sequence, the figures for `COCCN(CC(=O)N(Cc1ccccc1)Cc1cccs1)C(=O)CC(C)C` were -7% and 0.85.
As for `CC[C@@H](C(=O)Nc1c(C)cnn1CC)N1CCOCC1`, the “% Inhibition” value is recorded as -15% and the Z score is on record as 1.81.
For `C[C@]1(C#N)CCCN(C2CCN(Cc3ccco3)CC2)C1`, in that order: -11% and 2.05.
For `Cc1ccc(NC(=O)Cn2c(Nc3cccc(C)c3)nc(C)cc2=O)cc1`, in that order: -12% and 1.26.
Taken in the same sequence, the figures for `Cc1sc([C@H](C)NC(=O)OC(C)(C)C)nc1C(=O)O` were -13% and 1.99.
Turning to `COc1ccccc1CN1C(=O)O[C@H]2CN(S(=O)(=O)N3CCCC3)C[C@H]21`, the “% Inhibition” value is on record as -2% and the Z score worked out at 0.29.
For the molecule `Cc1noc(C)c1NC(=O)N1CCN(Cc2ccncc2)CC1`, the “% Inhibition” value was -30% and the Z score turned out to be 2.74.
For `O=C1[C@@H]2C(c3ccc(Cl)cc3Cl)=NO[C@@H]2C(=O)N1c1ccc2c(c1)OCO2`, in that order: 14% and -1.78.
For `CC(CC(O)c1ccco1)NCc1ccncc1` (stereo unspecified), in that order: -4% and 0.59.
Consider `Cc1ccc(S(=O)(=O)Nc2ccc(Oc3cc(C)nc(C)n3)cc2)cc1`, for which the “% Inhibition” value is reported as -11% and the Z score stood at 1.44.
With `CCNc1nc(C)c(C(=O)N[C@H]2CC[C@H]2NC2Cc3ccccc3C2)s1`, the “% Inhibition” value is recorded as 1% and the Z score was -0.07.
For `CCCc1nc(N2CCC(CNC(=O)c3conc3-c3ccccc3)CC2)no1`, in that order: -5% and 0.68.
For `C[C@@H](CCc1ccco1)Nc1ccc2cc[nH]c2n1`, the “% Inhibition” value is listed as -2% and the Z score is 0.34.
For `Cc1cccc(-c2c3c(=O)n(C)c(=O)n(C)c3c3c(C)cc(C)nn23)c1`, in that order: -14% and 1.87.
For `CCC(NC(=O)c1c(O)cccc1F)[C@H]1C[C@H](O)C1` (stereo partly specified), in that order: -2% and 0.3.
For `CC(=O)N[C@H](C(=O)Nc1ccc(C)c(F)c1)C(C)C`, in that order: 30% and -3.45.
`Cc1cc(C)cc(OCc2nc(CCN(C)C(=O)Nc3cccc(C(F)(F)F)c3)no2)c1`: the “% Inhibition” value is reported as -10% and the Z score was 0.98.
For `COC[C@H](C)N(Cc1cccc(F)c1)C(=O)c1cnc(C)[nH]c1=O`, in that order: -10% and 1.46.
Taken in the same sequence, the figures for `CC(=O)Nc1ccc(C)cc1S(=O)(=O)n1cc2c(=O)n(C(C)C)c(=O)n(C(C)C)c2n1` were -3% and 0.36.

(Values after ChEMBL document CHEMBL4888484, “Replenishing the malaria drug discovery pipeline: Screening and hit evaluation of the MMV Hit Generation Library 1 (HGL1) against asexual blood stage Plasmodium falciparum ,using a nano luciferase reporter read-out” (2022).)
